Test results reported in paper PMC4336329 (PLoS ONE, 2015).
Out of some 310,000 compounds screened, about 2,200 (0.71%) showed an effect of 50% or more. Effects have a minus sign here. The list shows a part of the results.

What follows are molecules tested against human ether-à-go-go-related gene (hERG) potassium channel (human, UniProt Q12809) (assay: primary screen, population patch clamp on CHO cells stably expressing hERG).
human ether-à-go-go-related gene (hERG) potassium channel, sequence (Q12809 whole entry, looked up): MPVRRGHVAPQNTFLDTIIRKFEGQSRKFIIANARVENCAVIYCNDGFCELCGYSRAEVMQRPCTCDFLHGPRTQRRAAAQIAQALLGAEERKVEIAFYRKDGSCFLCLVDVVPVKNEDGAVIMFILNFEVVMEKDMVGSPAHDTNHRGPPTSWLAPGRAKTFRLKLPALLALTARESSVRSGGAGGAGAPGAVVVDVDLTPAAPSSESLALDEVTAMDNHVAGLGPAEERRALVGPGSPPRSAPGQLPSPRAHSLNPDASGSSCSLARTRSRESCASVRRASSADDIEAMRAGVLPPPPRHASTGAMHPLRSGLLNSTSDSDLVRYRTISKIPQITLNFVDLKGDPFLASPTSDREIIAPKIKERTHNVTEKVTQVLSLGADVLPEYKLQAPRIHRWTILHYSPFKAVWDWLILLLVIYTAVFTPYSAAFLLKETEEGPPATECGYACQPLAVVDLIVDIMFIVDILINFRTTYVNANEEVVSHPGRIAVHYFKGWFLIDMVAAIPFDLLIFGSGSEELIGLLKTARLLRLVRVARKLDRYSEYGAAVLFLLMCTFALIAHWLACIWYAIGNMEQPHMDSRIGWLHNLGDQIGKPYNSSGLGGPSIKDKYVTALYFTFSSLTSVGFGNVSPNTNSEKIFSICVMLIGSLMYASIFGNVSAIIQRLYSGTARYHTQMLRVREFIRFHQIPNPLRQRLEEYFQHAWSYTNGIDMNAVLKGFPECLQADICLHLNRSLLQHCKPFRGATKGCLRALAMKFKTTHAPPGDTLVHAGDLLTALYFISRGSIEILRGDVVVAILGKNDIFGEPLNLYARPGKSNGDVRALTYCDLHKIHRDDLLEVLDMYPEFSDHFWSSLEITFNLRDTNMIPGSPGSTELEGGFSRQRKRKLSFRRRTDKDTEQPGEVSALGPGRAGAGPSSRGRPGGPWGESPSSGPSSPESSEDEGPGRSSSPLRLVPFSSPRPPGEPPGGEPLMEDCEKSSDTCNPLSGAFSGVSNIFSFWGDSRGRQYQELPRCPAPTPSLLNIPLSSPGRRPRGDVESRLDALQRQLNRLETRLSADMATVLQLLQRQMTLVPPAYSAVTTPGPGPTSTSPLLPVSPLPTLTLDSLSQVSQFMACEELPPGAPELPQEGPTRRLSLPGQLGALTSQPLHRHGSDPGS
With `O=C(Nc1ccc(S(=O)(=O)N2CCCCC2c2cccnc2)cc1)c1ccccc1F` (stereo not drawn) the “hERG current change (%, negative = inhibition) at 1uM” value was 7.3%.
For `CC(OC(=O)C1CCCCC1)C(=O)Nc1cccc(Cl)c1` (stereo not drawn), the “hERG current change (%, negative = inhibition) at 1uM” value was -12%.
In the case of `O=C(NCC1CC1)c1ccc(Oc2cc(Cl)cc(Cl)c2)o1`, the “hERG current change (%, negative = inhibition) at 1uM” value is reported as 8.8%.
In the case of `COc1ccc(NC(=O)Nc2c(C)n(-c3ccccc3)c(=O)n2C)cc1OC`, the “hERG current change (%, negative = inhibition) at 1uM” value is reported as 3.89%.
In the case of `Cc1nn(-c2ccccc2)c2[nH]c(=O)c(CNc3ccc4c(c3)OCCO4)cc12`, the “hERG current change (%, negative = inhibition) at 1uM” value is reported as 7.53%.
With `O=C(CN1C(=O)COc2ccccc21)N(Cc1cccnc1)Cc1ccccc1F` the “hERG current change (%, negative = inhibition) at 1uM” value was -18.7%.
For `Cc1c(C(=O)N2CCCC2)c(S(=O)(=O)NCC(C)c2ccccc2)c(C)n1C` (stereo not drawn), the “hERG current change (%, negative = inhibition) at 1uM” value was 7.13%.
In the case of `CCOP(=O)(OCC)C(Nc1cccc([N+](=O)[O-])c1)c1ccc(N(C)C)cc1` (stereo not drawn), the “hERG current change (%, negative = inhibition) at 1uM” value is reported as 9.47%.
`COc1ccc(CCNC(=O)Cn2c(=O)oc3ccccc32)cc1OC` was tested, and the “hERG current change (%, negative = inhibition) at 1uM” value was 3.42%.
In the case of `C=CCn1cnc2c(NCc3ccccc3)ncnc21`, the “hERG current change (%, negative = inhibition) at 1uM” value is reported as 13%.
`CC(C)N1C(=O)C2C(C(=O)NCc3ccccc3)C3C=CC2(O3)C1C(=O)NC(C)(C)C` (stereo not drawn) was tested, and the “hERG current change (%, negative = inhibition) at 1uM” value was 9.95%.
For `O=C1COc2cccnc2N1`, the “hERG current change (%, negative = inhibition) at 1uM” value was 6.15%.
With `Cc1cc2c(cc1S(=O)(=O)NCc1ccc(Cl)cc1)OCC(=O)N2` the “hERG current change (%, negative = inhibition) at 1uM” value was -25%.
`COC(=O)c1ccc(C)c(N(CCO)CCO)c1` was tested, and the “hERG current change (%, negative = inhibition) at 1uM” value was -8.11%.
In the case of `COc1ccc(/C(C)=N\Nc2nc(-c3ccccc3)cc(=O)[nH]2)cc1`, the “hERG current change (%, negative = inhibition) at 1uM” value is reported as 11.7%.
`COc1ccc(OC(=O)Nc2ccc([N+](=O)[O-])cc2OC)cc1` was tested, and the “hERG current change (%, negative = inhibition) at 1uM” value was 15%.
In the case of `Cc1nc2ccccc2c(=O)n1-c1ccc(Br)cc1[N+](=O)[O-]`, the “hERG current change (%, negative = inhibition) at 1uM” value is reported as 3.13%.
`COc1ccc(C(=O)Cc2cc(OC)c(OC)cc2[N+](=O)[O-])c(OC)c1` was tested, and the “hERG current change (%, negative = inhibition) at 1uM” value was 11.4%.
`Cc1ccccc1OCCNC(=O)/C=C/c1ccccc1` was tested, and the “hERG current change (%, negative = inhibition) at 1uM” value was 1.43%.
With `Cc1ccc(NC(=O)C(C)N2CCc3ccccc3C2)cc1` (stereo not drawn) the “hERG current change (%, negative = inhibition) at 1uM” value was 8.24%.
In the case of `COc1ccc(C2c3[nH]c4ccccc4c3CCN2C(=O)c2ccccc2C(C)=O)c(F)c1` (stereo not drawn), the “hERG current change (%, negative = inhibition) at 1uM” value is reported as 12.8%.
`CC(C)(C)c1ccc(N2C(=N)SCC2=O)cc1` was tested, and the “hERG current change (%, negative = inhibition) at 1uM” value was 8.31%.
For `O=C1CC2(CCCCCC2)Oc2ccccc21`, the “hERG current change (%, negative = inhibition) at 1uM” value was 0.318%.
With `O=c1c2ccccc2nc(-c2ccc(-c3ccccc3)cc2)n1-c1ccncc1` the “hERG current change (%, negative = inhibition) at 1uM” value was -20.6%.
In the case of `CCN(CC)CCN1C(=O)C2C(C(=O)Nc3cccc(SC)c3)C3C=CC2(O3)C1C(=O)NC1CCCC(C)C1C` (stereo not drawn), the “hERG current change (%, negative = inhibition) at 1uM” value is reported as -3.79%.
With `CC(=O)Nc1ccc(S(=O)(=O)N2c3ccc(F)cc3CCC2C)cc1` (stereo not drawn) the “hERG current change (%, negative = inhibition) at 1uM” value was -2.99%.
With `CCOc1ccc(/C(O)=C/C(=O)C(=O)Nc2ccc(S(=O)(=O)NC(C)=O)cc2)cc1` the “hERG current change (%, negative = inhibition) at 1uM” value was 15.2%.
With `Cc1ccc(C(=O)OCC(=O)Nc2ccccc2Sc2ccccc2)cc1C` the “hERG current change (%, negative = inhibition) at 1uM” value was 4.69%.
With `Cc1ccc(C2CC(c3ccco3)n3nc(N)nc3N2)cc1` (stereo not drawn) the “hERG current change (%, negative = inhibition) at 1uM” value was 0.0243%.
`CN1C(=O)C(=O)/C(=C(/O)c2ccc(Br)cc2)C1c1ccccc1F` (stereo not drawn) was tested, and the “hERG current change (%, negative = inhibition) at 1uM” value was 4.83%.
For `C(#CCN1CCOCC1)COC(c1ccccc1)c1ccccc1.Cl`, the “hERG current change (%, negative = inhibition) at 1uM” value was 18.4%.
For `CCOc1ncccc1C(=O)OCC(=O)c1cc(OC)ccc1OC`, the “hERG current change (%, negative = inhibition) at 1uM” value was 3.18%.
For `O=C(NCCCn1ccnc1)c1cn(-c2ccccc2)nc1-c1ccc(F)cc1`, the “hERG current change (%, negative = inhibition) at 1uM” value was -18.4%.
For `CCOC(=O)COc1cc(-n2c(=S)[nH]c3ccccc3c2=O)c(Cl)cc1Cl`, the “hERG current change (%, negative = inhibition) at 1uM” value was 0.776%.
With `CCOC(=O)c1csc(NC(=O)C2CCCCC2)n1` the “hERG current change (%, negative = inhibition) at 1uM” value was 7.88%.
`Cc1ccc(C(=O)NC2CCc3ccccc3C2=O)cc1` (stereo not drawn) was tested, and the “hERG current change (%, negative = inhibition) at 1uM” value was 12%.
For `C[C@H](NC(=O)N1CCn2c1nc1ccccc12)C(=O)NCc1ccco1`, the “hERG current change (%, negative = inhibition) at 1uM” value was 7.66%.
In the case of `Cc1cccc(C(=O)NCCN2CCCC2)c1.Cl`, the “hERG current change (%, negative = inhibition) at 1uM” value is reported as 7.66%.
For `C/C(N=Nc1nc2ccccc2s1)=N\Nc1ccccc1O`, the “hERG current change (%, negative = inhibition) at 1uM” value was 10.2%.
With `CN(CC(=O)NCCCN1CCOCC1)S(=O)(=O)c1ccc(Br)cc1` the “hERG current change (%, negative = inhibition) at 1uM” value was 0.879%.
In the case of `COc1ccc(/C=C2\SC(=NCc3ccccc3)NC2=O)cc1`, the “hERG current change (%, negative = inhibition) at 1uM” value is reported as 0.872%.
With `Cc1ccc(S(=O)(=O)NC2CC(C)(C)NC(C)(C)C2)c(C)c1C` the “hERG current change (%, negative = inhibition) at 1uM” value was 10.9%.
`O=C(CCc1nnc(CCCCc2ccccc2)o1)NCc1cc(F)ccc1F` was tested, and the “hERG current change (%, negative = inhibition) at 1uM” value was 4.95%.
In the case of `C=CCc1cccc2cc(C(=O)Nc3ccc(CC(=O)O)cc3)c(=O)oc12`, the “hERG current change (%, negative = inhibition) at 1uM” value is reported as 11.6%.
For `Cc1cccc(NC(=O)Nc2cc(C)cc(C)n2)c1`, the “hERG current change (%, negative = inhibition) at 1uM” value was 12.5%.
In the case of `O=C(CSc1ccc(-c2ccco2)nn1)Nc1ccccc1`, the “hERG current change (%, negative = inhibition) at 1uM” value is reported as -11.7%.
For `Oc1[nH]c2ccccc2c1N=Nc1cccc(Cl)c1`, the “hERG current change (%, negative = inhibition) at 1uM” value was 11.4%.
For `CC1(C)C(=O)N(c2ccccc2)C(=O)c2ccccc21`, the “hERG current change (%, negative = inhibition) at 1uM” value was 11.5%.
`COc1cc(NC(=O)Nc2cccc3cccnc23)cc(OC)c1OC` was tested, and the “hERG current change (%, negative = inhibition) at 1uM” value was 11.6%.
With `O=c1cc(NS(=O)(=O)c2ccccc2)nc(SCc2ccc(Cl)cc2)[nH]1` the “hERG current change (%, negative = inhibition) at 1uM” value was 12.8%.
For `CCOC(=O)N1CCN(C(=O)Cn2ccc3ccccc3c2=O)CC1`, the “hERG current change (%, negative = inhibition) at 1uM” value was -2.58%.
`Cc1cc(C(=O)COc2ccc(Br)cc2F)c(C)n1C1CC1` was tested, and the “hERG current change (%, negative = inhibition) at 1uM” value was 3.09%.
`O=C(CCCN1C(=O)c2ccccc2C1=O)NCCCn1ccnc1` was tested, and the “hERG current change (%, negative = inhibition) at 1uM” value was 22.3%.
For `COc1ccc(C(=O)CCC(=O)O)c(C)c1`, the “hERG current change (%, negative = inhibition) at 1uM” value was 8.99%.
`Clc1ccc(-c2nnc3sc(Cc4cccs4)nn23)c(Cl)c1` was tested, and the “hERG current change (%, negative = inhibition) at 1uM” value was 5.07%.
With `CCOc1ccc(NC(=S)N(CCc2c(C)[nH]c3ccccc23)Cc2ccco2)cc1` the “hERG current change (%, negative = inhibition) at 1uM” value was 8.37%.
With `CCC(c1nnnn1CCc1ccccc1)N(Cc1ccco1)Cc1cc2cc(C)cc(C)c2[nH]c1=O` (stereo not drawn) the “hERG current change (%, negative = inhibition) at 1uM” value was 6.06%.
